In patent US20220064294A1 (ARCUS BIOSCIENCES, published 2022):

Legend:
[1] = target: T1, human TIGIT, full length, on cells (human, UniProt Q495A1 22-244); test: flow cytometry, inhibition of hCD155-Fc binding to CHO-hTIGIT cells
T1 construct: also called hTIGIT; hTIGIT-CHO
T1 sequence: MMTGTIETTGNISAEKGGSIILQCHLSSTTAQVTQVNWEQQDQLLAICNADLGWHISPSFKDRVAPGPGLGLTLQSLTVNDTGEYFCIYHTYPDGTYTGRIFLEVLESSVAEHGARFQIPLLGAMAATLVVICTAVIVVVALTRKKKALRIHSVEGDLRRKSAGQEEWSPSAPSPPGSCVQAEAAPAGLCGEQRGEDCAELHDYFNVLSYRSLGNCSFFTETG
Method: The activity of Hu24F8.1-IgG1.AA and Hu24F8.2-IgG1.AA to block the interaction of TIGIT with CD155 was analyzed by flow cytometry using CHO cells stably overexpressing human TIGIT (CHO-hTIGIT) and human CD155-Fc fusion recombinant soluble protein (hCD155-Fc), as described in Example 1. […] The IC₅₀ for Hu24F8.1-IgG1.AA to block the TIGIT-CD155 interaction was 0.68 nM, and for Hu24F8.2-IgG1.AA it was 0.67 nM.

[2] = target: T1, human TIGIT, full length, on cells; test: flow cytometry, endogenous TIGIT on human CD8+ T cells activated with anti-CD3/CD28 beads and rhIL-2
Method: (§1) Binding of antibodies Hu24F8.1-IgG1.AA and Hu24F8.2-IgG1.AA to TIGIT expressed on cell surface was examined by flow cytometry. Cells expressing TIGIT on cell surface were collected and incubated in 100 μL of HBSS Buffer in the presence (or absence) of various concentrations of antibody for 1 hr at 4° C. After washing with HBSS, antibody binding on cells was detected with 2 μg/mL of Alexa488-labeled goat anti-human IgG antibody (ThermoFisher Scientific, Cat #A-11013) for 30 min at 4° C. Cells were then washed and resuspended in PBS and subjected to flow cytometry using a Attune NxT flow cytometer (ThermoFisher Scientific, Waltham, Mass.). GeoMean of fluorescence intensity was obtained for the whole single cell population, and for transient transfection, non-transfected cells were used to gate for the positive binding cell population to obtain percent of positive cells. Data was calculated by GraphPad Prism using the standard 4-parameter curve fitting.
(§2) Binding of Hu24F8.2-IgG1.AA to isolated human CD8⁺ T cells was examined by flow cytometry. CD8⁺ T cells were isolated using the RosetteSep™ Human CD8⁺ T cell Enrichment Cocktail (Stemcell, Cat #15023) following manufacturer recommendation. Cells were then activated with anti-CD3/CD28 beads with 20U/mL rhIL-2 supplements for 7-9 days. […]

[3] = target: T1, human TIGIT, full length, on cells; test: flow cytometry, endogenous TIGIT on isolated not-activated human CD8+ T cells
Method: as §1, §2

[4] = target: T1, human TIGIT, full length, on cells; test: cell-based or functional assay
[5] = target: T2, cTIGIT-His (cynomolgus monkey); test: SPR, Biacore T200, antibody captured on anti-human IgG chip, cTIGIT-His as analyte
T2 construct: also called His-tagged cyno TIGIT protein extracellular domain; soluble cTIGIT-His
T2 chain: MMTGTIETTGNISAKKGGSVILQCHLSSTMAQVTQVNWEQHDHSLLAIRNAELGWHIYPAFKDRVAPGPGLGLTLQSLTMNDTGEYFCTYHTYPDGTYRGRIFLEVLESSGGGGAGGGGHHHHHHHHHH
Method: (§3) The purified, full-length antibodies Hu24F8.1-IgG1.AA (containing VH1+VL2) and Hu24F8.2-IgG1.AA (containing VH2+VL2), together with the full-length chimera antibody of 24F8 mouse VH+VL and human IgG1/kappa constant domains (Ch24F8), were analyzed by SPR using a Biacore T200 instrument with antibody capture using an anti-human IgG coated chip and soluble hTIGIT-His or cTIGIT-His as the analyte.

[6] = target: T3, hTIGIT-His (human); test: SPR, Biacore T200, antibody captured on anti-human IgG chip, hTIGIT-His as analyte
T3 construct: also called His-tagged human TIGIT protein extracellular domain; soluble hTIGIT-His
T3 chain: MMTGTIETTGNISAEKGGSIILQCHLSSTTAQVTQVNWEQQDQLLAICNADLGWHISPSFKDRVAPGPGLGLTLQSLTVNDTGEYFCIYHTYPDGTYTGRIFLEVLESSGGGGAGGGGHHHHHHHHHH
Method: as §3

[7] = target: T3, hTIGIT-His; test: SPR, ProteOn XPR36, antibody captured on Protein A chip at six densities, hTIGIT-His as analyte, 25 C, global 1:1 fit
Method: (§4) Hu24F8.2-IgG1 was analyzed by SPR using a BioRad ProteOn XPR36 instrument with antibody capture using an anti-human IgG coated chip or a Protein A coated chip at six different densities. The analyte was soluble hTIGIT-His (stock solution prepared at 33.3 μM) which was diluted to 33 nM as the highest concentration and tested in triplicate in a three-fold dilution series over Hu24F8.2-IgG1 surface. The running buffer contained 10 mM HEPES, 150 mM NaCl, 0.05% tween-20 and 0.2 mg/mL BSA. All data were collected at 25° C. Data from all six surface densities were globally fit to a 1:1 interaction model using a local Rmax.

[8] = target: T3, hTIGIT-His; test: SPR, ProteOn XPR36, antibody captured on anti-human IgG chip at six densities, hTIGIT-His as analyte, 25 C, global 1:1 fit
Method: as §4

IC50 [1]: 670 pM
EC50 [2]: 140 pM
EC50 [3]: 98 pM
EC50 of luciferase reporter activity, TIGIT/CD155 Blockade Bioassay (Jurkat cells overexpressing TIGIT with CD155 aAPC/CHO-K1 cells) [4]: 2780 pM
Kd [5]: 1470 pM
koff [5]: 0.000997 s⁻¹
kon [5]: 679000 M⁻¹ s⁻¹
Kd [6]: 176 pM
koff [6]: 0.00014 s⁻¹
kon [6]: 796000 M⁻¹ s⁻¹
B1: Hu24F8.2-IgG1.AA (antibody)
heavy: QVQLQESGPGLVKPSGTLSLTCAVSGYSITSGYSWHWVRQPPGKGLEWIGYVHYSGSTNYNPSLKSRVTISVDKSKNQFSLKLSSVTAADTAVYYCARMDYGNYGGAMDYWGQGTLVTVSS[human IgG1 constant region with changes not spelt out]
light: EIVMTQSPATLSVSPGERATLSCKASQDVRTAVAWYQQKPGQAPRLLIYSASYRYTGIPARFSGSGSGTEFTLTISSLQSEDFAVYYCQQYYSTQWTFGGGTKVEIKRTVAAPSVFIFPPSDEQLKSGTASVVCLLNNFYPREAKVQWKVDNALQSGNSQESVTEQDSKDSTYSLSSTLTLSKADYEKHKVYACEVTHQGLSSPVTKSFNRGEC
notes: IgG1/kappa; also called Hu24F8.2 (VH2+VL2), IgG1/kappa with L234A/L235A

Kd [7]: 37.7 pM
koff [7]: 6.31e-05 s⁻¹
kon [7]: 1.67e+06 M⁻¹ s⁻¹
Kd [8]: 24.6 pM
koff [8]: 5.97e-05 s⁻¹
kon [8]: 2.42e+06 M⁻¹ s⁻¹
B2: Hu24F8.2-IgG1 (antibody)
heavy: QVQLQESGPGLVKPSGTLSLTCAVSGYSITSGYSWHWVRQPPGKGLEWIGYVHYSGSTNYNPSLKSRVTISVDKSKNQFSLKLSSVTAADTAVYYCARMDYGNYGGAMDYWGQGTLVTVSS[human IgG1 constant region not spelt out]
light: B1 light
notes: IgG1/kappa with wildtype IgG1 constant region; also called Hu24F8.2, wildtype IgG1 Fc

Each block holds one binder with its values, some of them ahead of it.
